Results from the supplement of paper PMC4967469.

How the values were obtained:
Assay in all cases: Viability of human cancer cell lines after 72 h of drug (GDSC screen)
[1] = compound: COc1cc(C(=O)NC2CCN(C)CC2)ccc1Nc1ncc2c(n1)N(C1CCCC1)C(C)CC(=O)N2C [NPK76-II-72-1]; conditions: top dose 10.24 µM; top dose inferred
Experimental: (§1)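 Human cancer cell lines in 384-well plates, medium with 10% serum, drug for 72 h over a 256-fold dose range (nine 2-fold or five 4-fold steps up to the top dose). Adherent lines were fixed and stained with the nucleic acid dye Syto60, suspension lines read with resazurin; signal relative to control wells, capped at 0 and 100%. One two-parameter sigmoid per drug and line, fitted in a mixed model over all curves with the slope shared within a line.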

[2] = compound: COc1ccc(C(=O)CC2(O)C(=O)Nc3c(Cl)ccc(Cl)c32)cc1 [YK 4-279]; conditions: top dose 10 µM
Experimental: as §1

[3] = compound: Cc1ccc2nc(NCCN)c3ncc(C)n3c2c1 [BMS-345541]; conditions: top dose 16 µM
Experimental: as §1

[4] = compound: NC(=O)Nc1cc(-c2cccc(F)c2)sc1C(=O)N[C@H]1CCCNC1 [AZD7762]; conditions: top dose 2 µM
Experimental: as §1

[5] = compound: Oc1nc(-c2ccc(C(F)(F)F)cc2)nc2c1CSCC2 [XAV 939]; conditions: top dose 5 µM; top dose inferred
Experimental: as §1

[6] = compound: O=C(O)c1ccc(-c2c[nH]c3ncc(-c4ccccc4)cc23)cc1C1CCCC1 [GSK-650394]; conditions: top dose 16 µM; top dose inferred
Experimental: as §1

[7] = compound: C=C(c1ccc(C(=O)O)cc1)c1cc2c(cc1C)C(C)(C)CCC2(C)C [Bexarotene]; conditions: top dose 8 µM
Experimental: as §1

Cell Line: OVCA420 (ovary, adherent)
- AUC [1]: 0.945
- IC50 [1]: > 10.2 µM
- AUC [2]: 0.91
- IC50 [2]: > 10 µM
- AUC [3]: 0.977
- IC50 [3]: > 16 µM
- AUC [4]: 0.773
- IC50 [4]: 1.05 µM
- AUC [5]: 0.9
- IC50 [5]: > 5 µM

Cell Line: OVCA433 (ovary, adherent)
- AUC [1]: 0.968
- IC50 [1]: > 10.2 µM
- AUC [2]: 0.447
- IC50 [2]: 0.442 µM
- AUC [3]: 0.937
- IC50 [3]: > 16 µM
- AUC [4]: 0.636
- IC50 [4]: 0.31 µM
- AUC [5]: 0.756
- IC50 [5]: 1.89 µM

Cell Line: OVK-18 (ovary, adherent)
- AUC [1]: 0.968
- IC50 [1]: > 10.2 µM
- AUC [2]: 0.771
- IC50 [2]: 4.25 µM
- AUC [3]: 0.877
- IC50 [3]: > 16 µM
- AUC [4]: 0.588
- IC50 [4]: 0.224 µM
- AUC [5]: 0.979
- IC50 [5]: > 5 µM

Cell Line: PEO1 (ovary, adherent)
- AUC [1]: 0.833
- IC50 [1]: 7 µM
- AUC [2]: 0.75
- IC50 [2]: 3.38 µM
- AUC [3]: 0.906
- IC50 [3]: > 16 µM
- AUC [4]: 0.505
- IC50 [4]: 0.129 µM
- AUC [5]: 0.965
- IC50 [5]: > 5 µM

Cell Line: QGP-1 (pancreas, adherent)
- AUC [1]: 0.853
- IC50 [1]: > 10.2 µM
- AUC [2]: 0.856
- IC50 [2]: > 10 µM
- AUC [3]: 0.907
- IC50 [3]: > 16 µM
- AUC [4]: 0.962
- IC50 [4]: > 2 µM
- AUC [5]: 0.976
- IC50 [5]: > 5 µM

Cell Line: RCC-AB (kidney, adherent)
- AUC [1]: 0.926
- IC50 [1]: > 10.2 µM
- AUC [2]: 0.801
- IC50 [2]: 6.69 µM
- AUC [3]: 0.846
- IC50 [3]: > 16 µM
- AUC [4]: 0.693
- IC50 [4]: 0.518 µM
- AUC [5]: 0.933
- IC50 [5]: > 5 µM

Cell Line: RCC-JW (kidney, adherent)
- AUC [1]: 0.967
- IC50 [1]: > 10.2 µM
- AUC [2]: 0.653
- IC50 [2]: 1.68 µM
- AUC [3]: 0.884
- IC50 [3]: > 16 µM
- AUC [4]: 0.753
- IC50 [4]: 0.685 µM
- AUC [5]: 0.902
- IC50 [5]: > 5 µM

Cell Line: RH-18 (rhabdomyosarcoma, adherent)
- AUC [2]: 0.954
- IC50 [2]: > 10 µM
- AUC [3]: 0.894
- IC50 [3]: > 16 µM
- AUC [4]: 0.844
- IC50 [4]: 1.76 µM
- AUC [5]: 0.953
- IC50 [5]: > 5 µM

Cell Line: RPMI-8226 (myeloma, suspension)
- AUC [1]: 0.891
- IC50 [1]: 9.16 µM
- AUC [2]: 0.637
- IC50 [2]: 1.42 µM
- AUC [4]: 0.556
- AUC [6]: 0.968
- IC50 [6]: > 16 µM
- AUC [5]: 0.99
- IC50 [5]: > 5 µM

Cell Line: SK-GT-4 (oesophagus, adherent)
- AUC [1]: 0.921
- IC50 [1]: > 10.2 µM
- AUC [2]: 0.732
- IC50 [2]: 3.42 µM
- AUC [3]: 0.863
- IC50 [3]: > 16 µM
- AUC [4]: 0.535
- IC50 [4]: 0.16 µM
- AUC [5]: 0.957
- IC50 [5]: > 5 µM

Cell Line: SK-MEL-5 (melanoma, adherent)
- AUC [1]: 0.983
- IC50 [1]: > 10.2 µM
- AUC [2]: 0.739
- IC50 [2]: 3.57 µM
- AUC [3]: 0.955
- IC50 [3]: > 16 µM
- AUC [4]: 0.698
- IC50 [4]: 0.513 µM
- AUC [5]: 0.909
- IC50 [5]: > 5 µM

Cell Line: SK-MG-1 (glioma, adherent)
- AUC [1]: 0.928
- IC50 [1]: > 10.2 µM
- AUC [2]: 0.76
- IC50 [2]: 3.55 µM
- AUC [3]: 0.922
- IC50 [3]: > 16 µM
- AUC [4]: 0.617
- IC50 [4]: 0.263 µM
- AUC [5]: 0.986
- IC50 [5]: > 5 µM

Cell Line: SNU-61 (large intestine, adherent)
- AUC [1]: 0.89
- IC50 [1]: > 10.2 µM
- AUC [2]: 0.98
- IC50 [2]: > 10 µM
- AUC [3]: 0.884
- IC50 [3]: > 16 µM
- AUC [4]: 0.883
- IC50 [4]: > 2 µM
- AUC [5]: 0.971
- IC50 [5]: > 5 µM

Cell Line: SNU-81 (large intestine, adherent)
- AUC [1]: 0.981
- IC50 [1]: > 10.2 µM
- AUC [2]: 0.859
- IC50 [2]: > 10 µM
- AUC [3]: 0.879
- IC50 [3]: > 16 µM
- AUC [4]: 0.786
- IC50 [4]: 1.2 µM
- AUC [5]: 0.98
- IC50 [5]: > 5 µM

Cell Line: SNU-407 (large intestine, adherent)
- AUC [1]: 0.782
- IC50 [1]: 5.06 µM
- AUC [2]: 0.698
- IC50 [2]: 2.5 µM
- AUC [3]: 0.867
- IC50 [3]: > 16 µM
- AUC [4]: 0.744
- IC50 [4]: 0.715 µM
- AUC [5]: 0.858
- IC50 [5]: > 5 µM

Cell Line: SNU-C5 (large intestine, adherent)
- AUC [1]: 0.949
- IC50 [1]: > 10.2 µM
- AUC [2]: 0.695
- IC50 [2]: 2.34 µM
- AUC [3]: 0.928
- IC50 [3]: > 16 µM
- AUC [4]: 0.503
- IC50 [4]: 0.127 µM
- AUC [5]: 0.944
- IC50 [5]: > 5 µM

Cell Line: SU-DHL-5 (B-cell lymphoma, suspension)
- AUC [7]: 0.973
- IC50 [7]: > 8 µM
- AUC [1]: 0.627
- IC50 [1]: 1.31 µM
- AUC [2]: 0.657
- IC50 [2]: 1.51 µM
- AUC [3]: 0.69
- IC50 [3]: 2.92 µM
- AUC [4]: 0.279
- IC50 [4]: 0.0357 µM
- AUC [6]: 0.746
- IC50 [6]: 4.05 µM

Cell Line: SW620 (large intestine, adherent)
- AUC [1]: 0.874
- IC50 [1]: 8 µM
- AUC [2]: 0.641
- IC50 [2]: 1.45 µM
- AUC [3]: 0.708
- IC50 [3]: 3.55 µM
- AUC [4]: 0.738
- IC50 [4]: 0.54 µM
- AUC [6]: 0.645
- IC50 [6]: 2.39 µM
- AUC [5]: 0.989
- IC50 [5]: > 5 µM

Cell Line: T47D (breast, adherent)
- AUC [1]: 0.942
- IC50 [1]: > 10.2 µM
- AUC [2]: 0.871
- IC50 [2]: > 10 µM
- AUC [3]: 0.919
- IC50 [3]: > 16 µM
- AUC [4]: 0.978
- IC50 [4]: > 2 µM
- AUC [6]: 0.969
- IC50 [6]: > 16 µM
- AUC [5]: 0.89
- IC50 [5]: > 5 µM

Cell Line: THP-1 (acute myeloid leukaemia, suspension)
- AUC [1]: 0.784
- IC50 [1]: 3.9 µM
- AUC [2]: 0.926
- IC50 [2]: > 10 µM
- AUC [4]: 0.697
- IC50 [4]: 0.419 µM
- AUC [6]: 0.952
- IC50 [6]: > 16 µM
- AUC [5]: 0.985
- IC50 [5]: > 5 µM

Cell Line: U-87-MG (glioma, adherent)
- AUC [1]: 0.956
- IC50 [1]: > 10.2 µM
- AUC [2]: 0.831
- IC50 [2]: 7.92 µM
- AUC [3]: 0.938
- IC50 [3]: > 16 µM
- AUC [4]: 0.822
- IC50 [4]: 1.45 µM
- AUC [6]: 0.932
- IC50 [6]: > 16 µM
- AUC [5]: 0.891
- IC50 [5]: > 5 µM

Cell Line: U-266 (myeloma, semi-adherent)
- AUC [2]: 0.888
- IC50 [2]: > 10 µM
- AUC [4]: 0.757
- IC50 [4]: 0.922 µM
- AUC [5]: 0.957
- IC50 [5]: > 5 µM

Cell Line: UWB1.289 (ovary, adherent)
- AUC [1]: 0.953
- IC50 [1]: > 10.2 µM
- AUC [2]: 0.738
- IC50 [2]: 4.3 µM
- AUC [3]: 0.948
- IC50 [3]: > 16 µM
- AUC [4]: 0.761
- IC50 [4]: 1.08 µM
- AUC [5]: 0.95
- IC50 [5]: > 5 µM

Cell Line: VMRC-LCD (lung adenocarcinoma, adherent)
- AUC [2]: 0.715
- IC50 [2]: 2.24 µM
- AUC [4]: 0.717
- IC50 [4]: 0.455 µM
- AUC [5]: 0.98
- IC50 [5]: > 5 µM

Cell Line: YH-13 (glioma, adherent)
- AUC [1]: 0.928
- IC50 [1]: > 10.2 µM
- AUC [2]: 0.661
- IC50 [2]: 1.8 µM
- AUC [3]: 0.927
- IC50 [3]: > 16 µM
- AUC [4]: 0.553
- IC50 [4]: 0.175 µM
- AUC [5]: 0.985
- IC50 [5]: > 5 µM

IC50 is the fitted dose that halves viability relative to control wells, and lower means more sensitive; where the fit passes the top or lowest dose, that dose stands as a limit. AUC sums up the same curve from the lowest dose to the 256-fold higher top dose; it is 1 without any effect and falls as sensitivity rises. For some of these results: Where the top dose is marked as inferred, it was calculated from the reported fits.
